Test results reported in the supplement of paper PMC3334620.
The full ranking holds about 33,000 sequences; the median of “E-score (-0.5 to 0.5)” is about -0.041, and the highest 2% start at about 0.37. The list shows a part of the results.

Target: T1, Ecm22 (UniProt Q05958)
T1 sequence: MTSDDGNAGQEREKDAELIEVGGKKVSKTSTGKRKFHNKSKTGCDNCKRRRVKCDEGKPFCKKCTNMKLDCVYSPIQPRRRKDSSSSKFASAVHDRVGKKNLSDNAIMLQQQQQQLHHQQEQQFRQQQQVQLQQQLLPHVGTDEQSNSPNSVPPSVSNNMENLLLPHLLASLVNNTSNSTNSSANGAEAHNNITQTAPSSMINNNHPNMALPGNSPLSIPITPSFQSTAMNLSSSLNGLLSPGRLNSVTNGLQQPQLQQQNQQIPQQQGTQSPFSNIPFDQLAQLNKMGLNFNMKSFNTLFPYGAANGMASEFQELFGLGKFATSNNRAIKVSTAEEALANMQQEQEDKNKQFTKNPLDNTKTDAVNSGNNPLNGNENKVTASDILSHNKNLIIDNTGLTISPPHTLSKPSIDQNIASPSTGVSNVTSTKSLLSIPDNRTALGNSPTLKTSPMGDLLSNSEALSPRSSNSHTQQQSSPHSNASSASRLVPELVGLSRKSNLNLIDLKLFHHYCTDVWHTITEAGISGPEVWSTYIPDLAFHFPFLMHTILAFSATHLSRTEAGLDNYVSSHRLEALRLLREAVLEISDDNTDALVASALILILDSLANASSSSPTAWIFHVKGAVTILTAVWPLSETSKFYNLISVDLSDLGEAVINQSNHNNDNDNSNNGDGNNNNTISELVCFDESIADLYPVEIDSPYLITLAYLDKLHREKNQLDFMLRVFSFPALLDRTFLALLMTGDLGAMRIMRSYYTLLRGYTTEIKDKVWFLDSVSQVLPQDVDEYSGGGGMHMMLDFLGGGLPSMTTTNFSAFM
Assay: PBM E-score (8-mer binding enrichment) (E-score (-0.5 to 0.5)); higher = stronger / more preferred TF binding; most listed sequences are background and not binding sites
Conditions: protein concentration: 200 nM; construct: GST-full length
In short: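 The E-score, a modified Wilcoxon-Mann-Whitney statistic, was computed by the Universal PBM Analysis Suite for every ungapped eight-base word pooled with its reverse complement. Scans behind it were normalised with masliner after bound GST-tagged yeast transcription factors were detected with fluorescent anti-GST. The proteins, at about 100-200 nM, had been applied to universal all-10-mer Agilent arrays made double-stranded by primer extension.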

Row | Sequence | PBM E-score
1 | AACGAAAG | 0.399
2 | CATTGGTC | -0.204
3 | CACAAATC | -0.0624
4 | AAAGTTCC | -0.191
5 | ACTGGTCG | -0.00202
6 | GACAGCAA | -0.203
7 | CGGTAAAG | 0.212
8 | ACGATCTA | 0.22
9 | CTGGACCC | -0.301
10 | GATCGCAC | 0.156
11 | ACTCAAGC | -0.33
12 | CCCTGATA | -0.194
13 | GAAGAGTC | 0.02
14 | CATTGCCC | -0.203
15 | ATGTTAAA | -0.102
16 | ACGGATGG | 0.207
17 | GCCTCATA | -0.0737
18 | ACGAGGGC | 0.374
19 | AGTAATCC | -0.126
20 | AGGGCGAG | -0.041
21 | AAAGGCTC | -0.00176
22 | ACCTCTTA | 0.118

Row | Sequence | PBM E-score
23 | TCTCACAA | -0.0348
24 | CTGATTCA | -0.297
25 | CAGTTGGA | -0.0473
26 | GACTATCA | -0.0739
27 | CGTCGATA | -0.142
28 | ATCAAAAC | -0.0829
29 | ATCAGACC | -0.179
30 | GGAAGTCC | -0.249
31 | GATGTAGC | -0.0899
32 | AATGAGCT | -0.037
33 | ATCGCAAC | 0.135
34 | AATATGCA | -0.00647
35 | TAGCATCA | -0.042
36 | TCCCAAAA | -0.0844
37 | GCATCAGC | -0.0738
38 | AATCTAGC | -0.159
39 | CTCCGTTC | 0.297
40 | CACAGACC | -0.0348
41 | CAAGCAGG | -0.249
42 | ACGGCCAA | 0.0263
43 | AGCAACTC | -0.0855
44 | CGTCTCGC | 0.185

Row | Sequence | PBM E-score
45 | AATCTGAA | -0.0785
46 | CCTTACGA | 0.383
47 | ATCTCTAA | -0.0286
48 | TCATAACA | -0.0191
49 | ATTTATCC | 0.179
50 | AGAACCCG | -0.0503
51 | TAAAATTA | 0.00698
52 | CACATAGA | -0.0996
53 | GGCGTGGA | -0.314
54 | ACAGATCA | -0.064
55 | CACTCTCA | 0.00852
56 | GAAATTAA | 0.0587
57 | AAGGTCCT | -0.142
58 | AGACAGGC | -0.116
59 | ATACACGA | 0.247
60 | AATCGAGT | 0.0277
61 | CATACATA | 0.0448
62 | AATAACGA | 0.175
63 | CGATACCC | 0.162
64 | AGTGTTCG | 0.164
65 | CCACCACC | -0.103
66 | AATTGAAT | -0.171

Row | Sequence | PBM E-score
67 | CGTGCACG | -0.00076
68 | GTGACCCA | -0.234
69 | CTACCACC | -0.17
70 | ATCCGCGG | -0.0486
71 | CGACCACC | 0.0539
72 | ATAATAGA | -0.0198
73 | GATGTTTA | -0.0275
74 | TACATCGA | 0.12
75 | ATCGGGTA | 0.0498
76 | CTTACGCC | 0.0486
77 | CCAGTTCG | 0.0201
78 | AGGAATCC | -0.221
79 | CCTGCGCA | -0.168
80 | GCCTAAAA | -0.211
81 | ATCGAAAC | 0.142
82 | GTACCAAC | 0.227
83 | CAGGCCCA | -0.124
84 | ACGCTGAC | 0.0435
85 | CCGTCCTA | -0.265
86 | ACAGCTAT | -0.0388
